Drawing on PMC5077188 (2016), this text covers Kd for one molecule.

The target in one test is M18.2. Briefly: BLI. In general terms: Biolayer interferometry detects binding as a change in optical thickness at a sensor tip.
Test [1] deals with M11.1, SUMO-rcSso7d fusion protein (Sulfolobus solfataricus, UniProt P39476). The test is described as follows: BLI.
The target in test [2] is M18.2.5. The test is described as follows: BLI.
The target in test [3] is M18.2.2. Briefly: BLI.
Test [4] concerns the target M11.1.5. The test is described as follows: BLI.
For another test, the target named is M18.1. The test is described as follows: BLI.
M18.1, sequence (P07724 25-608): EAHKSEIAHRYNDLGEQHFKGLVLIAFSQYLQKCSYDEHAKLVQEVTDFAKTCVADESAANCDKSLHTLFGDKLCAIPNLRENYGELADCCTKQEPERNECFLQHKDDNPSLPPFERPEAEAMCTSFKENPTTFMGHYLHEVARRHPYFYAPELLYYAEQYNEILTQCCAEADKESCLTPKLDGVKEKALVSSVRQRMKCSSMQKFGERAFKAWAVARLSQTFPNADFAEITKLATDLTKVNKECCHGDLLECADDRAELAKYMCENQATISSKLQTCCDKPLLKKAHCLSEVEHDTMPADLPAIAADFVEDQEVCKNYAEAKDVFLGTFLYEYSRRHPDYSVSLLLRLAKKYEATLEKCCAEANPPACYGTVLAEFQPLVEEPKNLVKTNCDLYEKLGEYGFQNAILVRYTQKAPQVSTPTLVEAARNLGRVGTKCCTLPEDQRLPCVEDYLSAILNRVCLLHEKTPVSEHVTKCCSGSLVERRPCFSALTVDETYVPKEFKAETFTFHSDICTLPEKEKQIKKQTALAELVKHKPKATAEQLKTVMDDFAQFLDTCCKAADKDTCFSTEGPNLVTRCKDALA
In another test the target is M11.2. The test is described as follows: BLI.
M11.2, sequence (P07724 25-608): as above
Test [5] deals with M18.1, displayed on yeast (Sulfolobus solfataricus, UniProt P39476). The test is described as follows: FACS; yeast surface display titration. (Flow cytometry measures light scatter and fluorescence of single cells or particles in a stream.)
Test [6] addresses M18.2, displayed on yeast (Sulfolobus solfataricus, UniProt P39476). The test is described as follows: FACS; yeast surface display titration.
Test [7] deals with M18.2.5. The test is described as follows: FACS; yeast surface display titration.
Test [8] deals with M11.2, displayed on yeast (Sulfolobus solfataricus, UniProt P39476). The test is described as follows: FACS; yeast surface display titration.
For test [9], the target named is M18.2.2. The test is described as follows: FACS; yeast surface display titration.
Test [10] deals with M11.1.5. The test is described as follows: FACS; yeast surface display titration.
M11.1.5, sequence (P07724 25-608): as above
The target of another test is M11.1.3. Briefly: FACS; yeast surface display titration.
M11.1.3, sequence (P07724 25-608): as above

M18.2.2, sequence (P07724 25-608): as above
M18.2.5, sequence (P07724 25-608): as above
M18.2, sequence (P07724 25-608): as above

B1: mouse serum albumin (natural protein)
chain: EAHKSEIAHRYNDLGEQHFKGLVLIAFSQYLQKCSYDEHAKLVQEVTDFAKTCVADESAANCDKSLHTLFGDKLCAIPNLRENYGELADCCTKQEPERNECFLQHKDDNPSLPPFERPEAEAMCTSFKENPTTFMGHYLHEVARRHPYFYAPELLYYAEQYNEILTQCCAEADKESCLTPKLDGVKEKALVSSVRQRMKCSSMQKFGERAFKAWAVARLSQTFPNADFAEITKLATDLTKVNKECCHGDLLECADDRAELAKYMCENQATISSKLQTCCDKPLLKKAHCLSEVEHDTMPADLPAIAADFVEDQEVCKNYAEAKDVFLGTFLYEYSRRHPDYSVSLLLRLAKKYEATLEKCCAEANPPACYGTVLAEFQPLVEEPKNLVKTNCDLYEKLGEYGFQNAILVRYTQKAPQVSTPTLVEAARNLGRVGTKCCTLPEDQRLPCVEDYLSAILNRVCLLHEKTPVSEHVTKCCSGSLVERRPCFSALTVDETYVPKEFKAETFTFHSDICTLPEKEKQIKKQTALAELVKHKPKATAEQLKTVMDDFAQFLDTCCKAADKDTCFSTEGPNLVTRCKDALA
modifications: biotin (EZ-Link Sulfo-NHS-LC-Biotin)
What is called Kd is a measure of binding affinity in units of concentration. A higher Kd goes with lower affinity. For the molecule B1, the equilibrium dissociation constant (Kd) with M18.2 was found to be 0.205 µM; in [1], 0.042 µM; with M18.2.5 [2] it was 0.026 µM; with M18.2.2 [3] it was 0.026 µM; in the test with M11.1.5 [4], 0.005 µM; in the test with M18.1, 0.215 µM. In addition, the Kd with M11.2 stood at 0.17 µM; in test [5] it was 0.819 µM; in [6] it was 0.977 µM; with M18.2.5 [7] it was 0.049 µM; in test [8], 0.892 µM; in the test with M18.2.2 [9] it was 0.066 µM. Moreover, the Kd in the test with M11.1.5 [10] came out at 0.019 µM; in the test with M11.1.3, 0.023 µM.
